From publication PMC5215751
Results are given in words; binding and its absence hold for the method and conditions named. In cells and extracts the contact can be indirect. Some binding calls cover weakened binding; strength is not graded here.

Chains of the proteins cited; added tags and fusions are not shown. Lines headed by an entry give the natural chain unless they say otherwise; changes in a name come on top.
UniProt Q13049: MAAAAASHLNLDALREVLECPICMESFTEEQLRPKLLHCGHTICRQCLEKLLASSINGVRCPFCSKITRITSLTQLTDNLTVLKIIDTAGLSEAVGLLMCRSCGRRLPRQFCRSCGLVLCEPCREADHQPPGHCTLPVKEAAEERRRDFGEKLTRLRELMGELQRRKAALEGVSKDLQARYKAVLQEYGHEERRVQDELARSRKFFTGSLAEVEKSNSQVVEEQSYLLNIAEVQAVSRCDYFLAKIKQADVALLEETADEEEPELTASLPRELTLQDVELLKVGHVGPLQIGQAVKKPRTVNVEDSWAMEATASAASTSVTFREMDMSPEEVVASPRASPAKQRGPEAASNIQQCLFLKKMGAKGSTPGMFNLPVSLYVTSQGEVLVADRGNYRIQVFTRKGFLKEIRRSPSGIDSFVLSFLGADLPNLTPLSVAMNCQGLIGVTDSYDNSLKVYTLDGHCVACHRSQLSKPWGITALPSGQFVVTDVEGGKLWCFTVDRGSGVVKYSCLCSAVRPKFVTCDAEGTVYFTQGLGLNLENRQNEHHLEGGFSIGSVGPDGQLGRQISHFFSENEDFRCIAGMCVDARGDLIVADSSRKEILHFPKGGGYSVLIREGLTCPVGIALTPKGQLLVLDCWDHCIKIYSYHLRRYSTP
UniProt Q969Q1: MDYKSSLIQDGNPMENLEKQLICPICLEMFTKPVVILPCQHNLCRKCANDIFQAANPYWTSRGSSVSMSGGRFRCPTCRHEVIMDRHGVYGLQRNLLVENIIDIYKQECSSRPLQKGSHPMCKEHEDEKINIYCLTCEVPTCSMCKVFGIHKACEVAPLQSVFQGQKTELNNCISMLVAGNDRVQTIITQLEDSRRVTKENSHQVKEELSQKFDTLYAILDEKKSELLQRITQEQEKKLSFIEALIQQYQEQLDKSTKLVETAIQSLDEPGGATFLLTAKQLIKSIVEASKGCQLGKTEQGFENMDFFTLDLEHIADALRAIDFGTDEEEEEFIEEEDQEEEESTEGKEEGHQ
UniProt P0DMV8: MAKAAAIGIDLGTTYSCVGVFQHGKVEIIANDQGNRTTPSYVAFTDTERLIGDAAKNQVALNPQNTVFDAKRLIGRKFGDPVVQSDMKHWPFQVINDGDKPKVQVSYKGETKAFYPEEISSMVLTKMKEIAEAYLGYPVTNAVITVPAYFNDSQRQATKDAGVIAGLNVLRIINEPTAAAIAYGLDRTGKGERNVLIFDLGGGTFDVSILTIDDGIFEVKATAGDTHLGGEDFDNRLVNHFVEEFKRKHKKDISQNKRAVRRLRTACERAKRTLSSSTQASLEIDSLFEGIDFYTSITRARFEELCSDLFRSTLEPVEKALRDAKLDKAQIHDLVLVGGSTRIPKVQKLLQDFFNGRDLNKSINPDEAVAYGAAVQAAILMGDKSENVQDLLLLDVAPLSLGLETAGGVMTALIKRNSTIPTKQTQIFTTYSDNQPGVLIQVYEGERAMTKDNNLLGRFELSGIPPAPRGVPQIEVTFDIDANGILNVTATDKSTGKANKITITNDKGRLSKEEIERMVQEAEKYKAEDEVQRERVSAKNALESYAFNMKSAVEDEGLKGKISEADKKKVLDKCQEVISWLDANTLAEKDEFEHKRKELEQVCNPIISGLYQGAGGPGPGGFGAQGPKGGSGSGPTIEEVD

Legend:
FLAG-TRIM32 (human) [1] = target: FLAG-TRIM32 (human) (UniProt Q13049); experiment: co-IP; HEK293 transiently transfected (24 h); FLAG-tagged protein immunoprecipitated with anti-FLAG Sepharose, washed five times with buffer A (50 mM Tris-HCl pH 7.5, 150 mM NaCl, 10% glycerol, 0.1% Triton X-100), eluted with FLAG peptide, western blot; in Fig 5B with co-expressed PKA catalytic subunit and increasing amounts of myc-14-3-3η
FLAG-TRIM32 (human) [2] = target: FLAG-TRIM32 (human) (UniProt Q13049); experiment: co-IP; two-step: FLAG-TRIM32 complexes from transfected HEK293 (anti-FLAG) immunoprecipitated again with anti-myc Sepharose beads; western blot for endogenous HSP70 or 14-3-3
FLAG-TRIM63 = FLAG-TRIM63 (UniProt Q969Q1); experiment: co-IP; HEK293 transiently transfected (24 h); FLAG-tagged protein immunoprecipitated with anti-FLAG Sepharose, washed five times with buffer A (50 mM Tris-HCl pH 7.5, 150 mM NaCl, 10% glycerol, 0.1% Triton X-100), eluted with FLAG peptide, western blot; in Fig 5B with co-expressed PKA catalytic subunit and increasing amounts of myc-14-3-3η

Substance	binding (FLAG-TRIM32 (human) [1])	binding (FLAG-TRIM32 (human) [2])	binding (FLAG-TRIM63)
myc-HSP70 (from UniProt P0DMV8 1-641)	binds	binds	–
myc-K71S (from UniProt P0DMV8 1-641)	binds	–	–
endogenous HSP70 (HSPA1A) (from UniProt P0DMV8 1-641)	binds	–	binds
myc-V438F (from UniProt P0DMV8 1-641)	no binding	–	–
